This note sets out measurements from article PMC4336329 (PLoS ONE, 2015).

SMILES strings stand for the structures. The whole screen tested about 310,000 compounds, of which about 2,200 (0.71%) showed an effect of 50% or more. Effects have a minus sign here. Some of the results follow.

The target of the experiment is human ether-à-go-go-related gene (hERG) potassium channel (human, UniProt Q12809). The experiment can be described thus: primary screen, population patch clamp on CHO cells stably expressing hERG.
Sequence of human ether-à-go-go-related gene (hERG) potassium channel (Q12809 whole entry, looked up): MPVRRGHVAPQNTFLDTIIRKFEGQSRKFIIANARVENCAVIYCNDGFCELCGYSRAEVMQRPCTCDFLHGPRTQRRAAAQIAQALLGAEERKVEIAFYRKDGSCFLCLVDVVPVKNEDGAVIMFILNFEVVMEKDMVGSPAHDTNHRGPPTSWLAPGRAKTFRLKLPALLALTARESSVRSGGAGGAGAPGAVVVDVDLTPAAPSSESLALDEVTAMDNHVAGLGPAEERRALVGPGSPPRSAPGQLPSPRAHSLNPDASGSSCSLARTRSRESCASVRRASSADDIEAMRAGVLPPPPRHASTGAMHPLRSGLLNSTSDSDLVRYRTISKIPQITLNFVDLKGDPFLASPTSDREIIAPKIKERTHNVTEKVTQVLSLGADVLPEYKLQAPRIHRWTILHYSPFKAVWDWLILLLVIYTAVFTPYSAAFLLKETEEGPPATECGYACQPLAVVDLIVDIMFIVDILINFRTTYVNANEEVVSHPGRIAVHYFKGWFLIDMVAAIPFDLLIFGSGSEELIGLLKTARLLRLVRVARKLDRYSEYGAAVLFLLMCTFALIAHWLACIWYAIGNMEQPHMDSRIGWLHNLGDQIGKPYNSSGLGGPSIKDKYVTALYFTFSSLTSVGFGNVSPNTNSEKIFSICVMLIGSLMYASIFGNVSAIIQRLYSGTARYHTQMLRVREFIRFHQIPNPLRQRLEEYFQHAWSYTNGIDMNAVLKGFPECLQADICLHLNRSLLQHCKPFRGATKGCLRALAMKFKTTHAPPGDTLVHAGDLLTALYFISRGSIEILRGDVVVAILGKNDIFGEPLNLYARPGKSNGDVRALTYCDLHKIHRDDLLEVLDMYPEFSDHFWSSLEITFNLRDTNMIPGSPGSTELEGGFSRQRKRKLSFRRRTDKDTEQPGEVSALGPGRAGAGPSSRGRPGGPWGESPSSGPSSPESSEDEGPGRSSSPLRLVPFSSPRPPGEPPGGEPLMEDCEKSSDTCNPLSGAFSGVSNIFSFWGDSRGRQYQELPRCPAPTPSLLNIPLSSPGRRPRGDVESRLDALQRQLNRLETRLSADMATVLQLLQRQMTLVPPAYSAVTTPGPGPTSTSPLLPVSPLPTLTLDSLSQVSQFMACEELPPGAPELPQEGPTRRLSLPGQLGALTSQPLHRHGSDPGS
Regarding `Cc1noc(C)c1COC(=O)C1CCN(C(=O)c2ccc(Cl)cc2)CC1`, the “hERG current change (%, negative = inhibition) at 1uM” value was -11.2%.

With `COCCNC(=O)c1c[nH]n2c(=O)cc(C3CCN(C(=O)OC(C)(C)C)CC3)nc12`, the “hERG current change (%, negative = inhibition) at 1uM” value came out at 9.37%.

In the case of `CC(C)c1c(O)cc(-c2ccncc2)n(-c2ccc(Cl)cc2)c1=O`, the “hERG current change (%, negative = inhibition) at 1uM” value is recorded as -6.96%.

Consider `CC(CC(=O)Nc1ccc(F)c([N+](=O)[O-])c1)c1ccccc1` (stereo not drawn), for which the “hERG current change (%, negative = inhibition) at 1uM” value is given as 8.21%.

On to `CN(C)CC(=O)N1c2ccccc2Sc2ccc(Cl)cc21.Cl`, for which the “hERG current change (%, negative = inhibition) at 1uM” value was 4.38%.

As to `Cc1noc(C)c1C(=O)OCC(=O)c1cc(C)n(Cc2ccccc2Cl)c1C`, the “hERG current change (%, negative = inhibition) at 1uM” value is -5.89%.

As for `Cc1ccc(OCCC(=O)OCC(=O)Nc2c(C)nn(-c3ccccc3)c2C)cc1`, the “hERG current change (%, negative = inhibition) at 1uM” value is reported as -1.03%.

For the compound `Br.c1ccc(-c2nc(CSc3nnnn3-c3ccccc3)cs2)cc1`, the “hERG current change (%, negative = inhibition) at 1uM” value is given as 9.81%.

Regarding `COc1ccc(CCN2CC(C(=O)N(C)CCn3nc(C)cc3C)CCC2=O)cc1` (stereo not drawn), the “hERG current change (%, negative = inhibition) at 1uM” value is listed as 14%.

For the compound `O=C(Nc1nnc(S(=O)(=O)N2CCCCCC2)s1)c1ccccc1`, the “hERG current change (%, negative = inhibition) at 1uM” value came to 13.3%.

On to `Cc1ccc(C(=O)CSc2nnc(C3CC3)n2C2CC2)s1`, for which the “hERG current change (%, negative = inhibition) at 1uM” value is reported as 5.56%.

As to `COc1cccc(-n2c(Cc3cc(=O)[nH]c(=O)[nH]3)nnc2SCc2cccnc2)c1`, the “hERG current change (%, negative = inhibition) at 1uM” value is listed as 7.31%.

For the compound `COc1ccc(C(=O)NCc2cn3c(C)csc3n2)cc1OC`, the “hERG current change (%, negative = inhibition) at 1uM” value is reported as -1.69%.

With `O=C(NNC(=O)c1cc(S(=O)(=O)N2CCCCC2)ccc1Cl)c1ccccc1O`, the “hERG current change (%, negative = inhibition) at 1uM” value is reported as -2%.

As for `Cc1cc(C)cc(N2CCCC2=O)c1`, the “hERG current change (%, negative = inhibition) at 1uM” value came out at 15.7%.

Regarding `CN1CCN(S(=O)(=O)c2ccc(-c3ccccc3)cc2)CC1`, the “hERG current change (%, negative = inhibition) at 1uM” value is reported as 10.1%.

Regarding `CC(C)NS(=O)(=O)c1ccc(OCC(=O)Nc2ccc3c(c2)OCO3)cc1`, the “hERG current change (%, negative = inhibition) at 1uM” value is -1.32%.

As to `Cc1ccc(NC(=O)CSc2nc3ccccc3c(=O)n2CCCC(=O)N2CCCC2)cc1`, the “hERG current change (%, negative = inhibition) at 1uM” value was -34.7%.

`Cc1ccc(C(O)c2ccncc2)cc1` (stereo not drawn): the “hERG current change (%, negative = inhibition) at 1uM” value worked out at 13%.

Regarding `OCC[C@H]1C[C@@H](O)[C@H](O)[C@@]2(OCCc3ccccc32)O1`, the “hERG current change (%, negative = inhibition) at 1uM” value amounted to 7.45%.

Consider `Cc1ccc(S(=O)(=O)N2CCC(C(=O)N[C@@H](Cc3ccccc3)C(=O)O)CC2)cc1`, for which the “hERG current change (%, negative = inhibition) at 1uM” value was 2.7%.

For `O=C(Nc1ccc(N2CCOCC2)c(Cl)c1)c1cccnc1`, the “hERG current change (%, negative = inhibition) at 1uM” value is 6.61%.

As to `CCOC(=O)c1c(/N=C/c2ccccc2O)sc2c1CCC2`, the “hERG current change (%, negative = inhibition) at 1uM” value amounted to 4.95%.

Turning to `COc1ccccc1-n1c(SCc2cc(=O)oc3cc(O)ccc23)nc2ccccc2c1=O`, the “hERG current change (%, negative = inhibition) at 1uM” value is -9.58%.

As to `O=C(Cc1ccc([N+](=O)[O-])cc1)NCc1ccccn1`, the “hERG current change (%, negative = inhibition) at 1uM” value stood at 12.5%.

As to `O=C(Cn1cnc2ccccc2c1=O)NCC(=O)N1CCC2(CC1)OCCO2`, the “hERG current change (%, negative = inhibition) at 1uM” value is -1.34%.

Consider `COc1ccccc1-n1c(N)c(C(=O)NCC2CCCO2)c2nc3ccccc3nc21` (stereo not drawn), for which the “hERG current change (%, negative = inhibition) at 1uM” value is given as 7.54%.

For the compound `O=C(Cn1ccc([N+](=O)[O-])n1)NCc1cccs1`, the “hERG current change (%, negative = inhibition) at 1uM” value amounted to 4.86%.

Turning to `CN(C)S(=O)(=O)N1CCN(S(=O)(=O)c2ccc(F)cc2)CC1`, the “hERG current change (%, negative = inhibition) at 1uM” value was found to be 9.81%.

Consider `Cl.O=C(NCc1nc2ccccc2[nH]1)c1c(F)c(F)c(F)c(F)c1F`, for which the “hERG current change (%, negative = inhibition) at 1uM” value was 5.47%.

As to `O=C1C2CCCCC2C(=O)N1c1ccc(NC2CCCCC2)c([N+](=O)[O-])c1` (stereo not drawn), the “hERG current change (%, negative = inhibition) at 1uM” value is listed as 14.8%.

As for `O=S(=O)(NC1CCSc2ccccc21)c1ccccc1` (stereo not drawn), the “hERG current change (%, negative = inhibition) at 1uM” value came out at 10.6%.

Take `O=C(O)C1CCN(S(=O)(=O)c2ccc(Oc3ccccc3)cc2)CC1`: the “hERG current change (%, negative = inhibition) at 1uM” value came to 17.1%.

On to `O=C(NC(Cc1ccccc1)C(=O)N1CCCC(C(F)(F)F)C1)c1ccccc1` (stereo not drawn), for which the “hERG current change (%, negative = inhibition) at 1uM” value is recorded as 7.64%.

With `O=C1[C@@H]2CSCN2C(=O)CN1CCc1cccc(F)c1`, the “hERG current change (%, negative = inhibition) at 1uM” value is -10.7%.

In the case of `CCCCCN(C(=O)CCC(=O)OCCOc1ccccc1Cl)c1c(N)n(CCCC)c(=O)[nH]c1=O`, the “hERG current change (%, negative = inhibition) at 1uM” value is given as 9.07%.

As to `Cn1c(CCC(=O)OCC(=O)Nc2ccc(Oc3ccccc3)cc2)nc(=O)c2ccccc21`, the “hERG current change (%, negative = inhibition) at 1uM” value is recorded as -0.724%.

Turning to `COC(=O)c1ccc2nc(C)c(C)nc2c1`, the “hERG current change (%, negative = inhibition) at 1uM” value is given as 15.8%.

On to `CCN(CC)C(=O)N1CCN(C(=O)c2ccc(C)cn2)CC1`, for which the “hERG current change (%, negative = inhibition) at 1uM” value is 8.85%.

Turning to `CCOCCCNC(=O)CCS(=O)(=O)Cc1ccc(C)cc1`, the “hERG current change (%, negative = inhibition) at 1uM” value came out at 2.15%.

Turning to `CC(C)(C)OC(=O)NC(CCCCNC=O)C(=O)O` (stereo not drawn), the “hERG current change (%, negative = inhibition) at 1uM” value worked out at 5.74%.

As to `O=C(O)CCCCCNC(=O)c1ccc(Br)cc1`, the “hERG current change (%, negative = inhibition) at 1uM” value came to 5.7%.

With `Cc1ccc(C)c(S(=O)(=O)n2cnc3ccccc32)c1`, the “hERG current change (%, negative = inhibition) at 1uM” value worked out at 14.1%.

With `CCNC(=S)N1CCN(S(=O)(=O)c2ccccc2C(F)(F)F)CC1`, the “hERG current change (%, negative = inhibition) at 1uM” value stood at 5.21%.

Consider `Cc1ccc(NC(=S)N2CCC(NC(=O)C3CCCCC3)CC2)cc1C`, for which the “hERG current change (%, negative = inhibition) at 1uM” value turned out to be 11.9%.
